Some of the results follow.
System: HSkMC (human skeletal muscle cells)
Assay: cytotoxicity call (relative viability < 0.9)
Conditions: 10 µM

Structure (SMILES)	cytotoxicity call
CC(C)NC(=O)Nc1ccc2c(c1)C(=O)N([C@@H](C)CO)C[C@H](C)[C@@H](CN(C)Cc1ccccc1)OCCCC[C@@H](C)O2	inactive
C[C@@H]1CCCCO[C@@H](CN(C)C(=O)c2ccccc2)[C@@H](C)CN([C@H](C)CO)C(=O)c2cc(NS(=O)(=O)c3ccc(F)cc3)ccc2O1	inactive
C[C@@H]1CN([C@@H](C)CO)C(=O)Cc2cc(NS(=O)(=O)c3ccc(Cl)cc3)ccc2O[C@H]1CN(C)S(C)(=O)=O	inactive
CN(C)CCN1[C@]2(CCN(C(=O)N3CCOCC3)C2)c2ccccc2S1(=O)=O	inactive
Cc1noc(C)c1S(=O)(=O)Nc1cccc2c1O[C@H](CN(C)C(=O)Nc1ccccc1)[C@H](C)CN([C@@H](C)CO)C2=O	inactive
COc1ccc2c3c([nH]c2c1)[C@@H](CO)N(C[C@]13CN(CC2CCOCC2)C1)C(=O)Nc1c(noc1C)C	inactive
COc1ccc(S(=O)(=O)Nc2ccc3c(c2)C(=O)N([C@H](C)CO)C[C@@H](C)[C@H](CN(C)Cc2ccc4c(c2)OCO4)OCCCC[C@@H](C)O3)cc1	inactive
Cc1ccc(S(=O)(=O)N(C)C[C@H]2OCCCC[C@@H](C)Oc3ccc(NC(=O)Nc4ccccc4)cc3C(=O)N([C@H](C)CO)C[C@@H]2C)cc1	inactive
CC(C)NC(=O)Nc1ccc2c(c1)CC(=O)N([C@H](C)CO)C[C@H](C)[C@@H](CN(C)S(=O)(=O)c1ccccc1)O2	inactive
C[C@H](CO)N1C[C@H](C)[C@@H](CN(C)C(=O)Nc2ccccc2)Oc2cc(C#CC3(O)CCCC3)ccc2S1(=O)=O	inactive
O=C(C[C@@H]1C=C[C@H](NC(=O)CN2CCOCC2)[C@H](CO)O1)NC1CCC1	inactive
CCCN(C)C[C@@H]1Oc2cc(C#Cc3ccc(OC)cc3)ccc2S(=O)(=O)N([C@H](C)CO)C[C@@H]1C	inactive
COCCC(=O)N1CCC2(CC1)COC2	inactive
CO[C@H]1CN(C)C(=O)c2ccc(NC(=O)c3ccc(F)cc3)cc2OC[C@@H](C)N(C(=O)CN(C)C)C[C@H]1C	inactive
C[C@@H]1CCCCO[C@H](CN(C)Cc2ccc3c(c2)OCO3)[C@@H](C)CN([C@H](C)CO)C(=O)c2cc(NS(=O)(=O)c3ccc(F)cc3)ccc2O1	inactive
C[C@H](CO)N1C[C@H](C)[C@H](CN(C)Cc2ccc(-c3ccccc3)cc2)OCc2ccccc2-c2ccccc2C1=O	inactive
O=C(C[C@H]1CC[C@H]2[C@@H](COC[C@H](O)CN2Cc2cccc(C(F)(F)F)c2)O1)NCCc1ccncc1	inactive
COc1ccc(CCC(=O)c2c(O)cc(O[C@@H]3O[C@H](CO)[C@@H](O)[C@H](O)[C@H]3O[C@@H]3O[C@@H](C)[C@H](O)[C@@H](O)[C@H]3O)cc2O)cc1O	inactive
COc1ccc(S(=O)(=O)N(C)C[C@@H]2Oc3ccc(NS(=O)(=O)c4c(C)noc4C)cc3CC(=O)N([C@H](C)CO)C[C@H]2C)cc1	inactive
COc1ccccc1C#Cc1ccc2c(c1)O[C@@H](CN(C)C(C)=O)[C@H](C)CN([C@@H](C)CO)S2(=O)=O	inactive

Structure (SMILES)	cytotoxicity call
C[C@@H]1CCCCO[C@H](CN(C)Cc2ccc3c(c2)OCO3)[C@@H](C)CN([C@H](C)CO)C(=O)c2cc(NC(=O)C3CCCCC3)ccc2O1	inactive
Cc1ccc(S(=O)(=O)N[C@@H]2C=C[C@@H](CC(=O)NCCN3CCCCC3)O[C@H]2CO)cc1	inactive
CCCNC(=O)Nc1ccc2c(c1)C(=O)N(C)C[C@@H](OC)[C@@H](C)CN(Cc1ccc(-c3ccccn3)cc1)[C@H](C)CO2	inactive
C[C@@H]1CN([C@@H](C)CO)S(=O)(=O)c2ccc(-c3ccc(C(=O)N(C)C)cc3)cc2O[C@@H]1CN(C)C(=O)C1CCOCC1	inactive
CC(C)NC(=O)Nc1ccc2c(c1)C(=O)N([C@H](C)CO)C[C@H](C)[C@H](CN(C)C(=O)Nc1cccc3ccccc13)OCCCC[C@@H](C)O2	inactive
COc1ccc(NC(=O)Nc2ccc3c(c2)C(=O)N([C@H](C)CO)C[C@@H](C)[C@@H](CN(C)S(=O)(=O)c2ccc(C)cc2)OCCCC[C@H](C)O3)cc1	inactive
Cc1noc(C)c1NC(=O)N(C)C[C@@H]1OCCCC[C@@H](C)Oc2ccc(NC(=O)Nc3ccccc3)cc2C(=O)N([C@@H](C)CO)C[C@H]1C	inactive
C[C@@H]1CN([C@H](C)CO)S(=O)(=O)c2ccc(C#Cc3ccncc3)cc2O[C@@H]1CN(C)C(=O)C1CCCCC1	inactive
CNC[C@@H](O)c1ccc(O)c(O)c1	inactive
C[C@@H]1CN([C@@H](C)CO)C(=O)c2cc(NC(=O)CCC(F)(F)F)ccc2O[C@@H](C)CCCCO[C@H]1CN(C)C(=O)Nc1ccccc1	inactive
COc1ccc(S(=O)(=O)N(C)C[C@@H]2Oc3c(NC(=O)C4CC4)cccc3C(=O)N([C@@H](C)CO)C[C@@H]2C)cc1	inactive
C[C@H](CO)N1C[C@H](C)[C@H](CN(C)S(C)(=O)=O)OCc2cnnn2CCCC1=O	inactive
N#Cc1ccc(NCCNC(=N)N)nc1	inactive
C[C@@H]1CN([C@H](C)CO)C(=O)c2cccc(NC(=O)CCCCCC(=O)Nc3ccccc3N)c2O[C@H]1CN(C)C(=O)Nc1ccccc1	inactive
C[C@@H]1CN([C@H](C)CO)C(=O)c2cc(NS(=O)(=O)c3ccc(F)cc3)ccc2O[C@H]1CN(C)CC1CC1	inactive
COc1ccc(NC(=O)Nc2cccc3c2O[C@@H](CN(C)Cc2ccc(-c4ccccc4)cc2)[C@@H](C)CN([C@@H](C)CO)C3=O)cc1	inactive
C[C@@H]1CN([C@H](C)CO)C(=O)c2cc(C#CCN(C)C)cnc2O[C@@H]1CN(C)Cc1cccc(C(=O)O)c1	inactive
C1CC2(CCN1)OCCS2	inactive
O[C@@H]1Cc2ccccc2[C@H]1O	inactive
C[C@@H]1CCCCO[C@H](CN(C)C(=O)Nc2ccccc2)[C@@H](C)CN([C@H](C)CO)C(=O)c2cc(NC(=O)CCC(F)(F)F)ccc2O1	inactive

Source: the antibiotic and cytotoxicity screens of Wong et al. (2023)
